Here are results for 9 molecules from paper PMC9911399, “Two distinct binding modes provide the RNA-binding protein RbFox with extraordinary sequence specificity”.

T1: RBFOX1 RRM RbFoxmut (Fox-RRM*) (Homo sapiens, UniProt Q9NWB1 109-208, R118D;E147R;N151S;E152T)
T1 sequence: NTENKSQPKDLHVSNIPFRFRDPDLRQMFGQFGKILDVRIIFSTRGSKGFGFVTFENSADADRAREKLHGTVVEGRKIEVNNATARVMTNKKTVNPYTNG

B1: AAAACGG (DNA:RNA)
RNA: GGGAGACCGGAAUUCAGAUUGUCCAAAACGGUUAAAUCCCGUCGUAGCCACCA
DNA 1: CAATCTGAATTCCGGTCTCCC
DNA 2: TGGTGGCTACGACGGGATT
B2: GAUAACA (DNA:RNA)
RNA: B1 RNA with A25G, A27U, C29A, G30C, G31A
DNA 1: CAATCTGAATTCCGGTCTCCC
DNA 2: TGGTGGCTACGACGGGATT
B3: AUAUCGU (DNA:RNA)
RNA: B1 RNA with A26U, A28U, G31U
DNA 1: CAATCTGAATTCCGGTCTCCC
DNA 2: TGGTGGCTACGACGGGATT
B4: CGGAGGA (DNA:RNA)
RNA: B1 RNA with A25C, A26G, A27G, C29G, G31A
DNA 1: CAATCTGAATTCCGGTCTCCC
DNA 2: TGGTGGCTACGACGGGATT
B5: AUUAGCC (DNA:RNA)
RNA: B1 RNA with A26U, A27U, C29G, G30C, G31C
DNA 1: CAATCTGAATTCCGGTCTCCC
DNA 2: TGGTGGCTACGACGGGATT
B6: UACUCGU (DNA:RNA)
RNA: B1 RNA with A25U, A27C, A28U, G31U
DNA 1: CAATCTGAATTCCGGTCTCCC
DNA 2: TGGTGGCTACGACGGGATT
B7: UACCAUA (DNA:RNA)
RNA: B1 RNA with A25U, A27C, A28C, C29A, G30U, G31A
DNA 1: CAATCTGAATTCCGGTCTCCC
DNA 2: TGGTGGCTACGACGGGATT
B8: GUUAGGU (DNA:RNA)
RNA: B1 RNA with A25G, A26U, A27U, C29G, G31U
DNA 1: CAATCTGAATTCCGGTCTCCC
DNA 2: TGGTGGCTACGACGGGATT
B9: UAAAGAA (DNA:RNA)
RNA: B1 RNA with A25U, C29G, G30A, G31A
DNA 1: CAATCTGAATTCCGGTCTCCC
DNA 2: TGGTGGCTACGACGGGATT

Substitutions are numbered along the chain they refer to; changes in the protein carry UniProt numbers. Some of the results follow.

This experiment deals with T1, RBFOX1 RRM RbFoxmut (Fox-RRM*). The experiment can be described thus: EMSA; HiTS-Eq, 1 nM pool, 10 min; buffer printed only for the single-RNA assays: 10 mM Tris pH 7.5, 150 mM NaCl, 3.4 mM EDTA, 0.001% NP-40, 30 C. To be noted: tags: His6 N-terminal (pET28a); label: 5' 32P. In outline: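 Relative association constants, normalised to the cognate motif, were derived by comparing read counts of each RNA species with those of the control reaction. The RNA sequenced was the free fraction, separated by 8% native PAGE after a 10 min equilibration in 50 µL of 1 nM 5′-radiolabelled RNA (7 randomized nucleotides) with increasing concentrations of purified wild-type or mutant RbFox RRM.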
As for B1, the binding signal is 0.0677 KA relative to UGCAUGU.

On to B2, for which the binding signal was 0.0446 KA relative to UGCAUGU.

With B3, the binding signal was 0.122 KA relative to UGCAUGU.

Turning to B4, the binding signal was 0.0633 KA relative to UGCAUGU.

B5: the binding signal was 0.128 KA relative to UGCAUGU.

Consider B6, for which the binding signal was 0.0905 KA relative to UGCAUGU.

As for B7, the binding signal is 0.0926 KA relative to UGCAUGU.

Consider B8, for which the binding signal is 0.0924 KA relative to UGCAUGU.

Regarding B9, the binding signal was 0.0663 KA relative to UGCAUGU.
